# The supplement of paper PMC10037445
# Several values for one entry are separate records, joined by “and”; a condition that tells them apart may be missing. Equal values may be shown once. ± gives the standard deviation of the averaged measurements. In all, about 2,900 compounds were measured (“IRF Lucia reporter activity, fold change vs agonist alone”: median about 0.9, highest 2% from about 2.8 on). The list shows a part of the results.
# Experiments:
# [1] = test system: RAW-Dual; test: IRF Lucia reporter activity, fold change vs agonist alone; cytotoxicity flag (confluency mask): not cytotoxic; higher = enhanced IRF activity
# In short: (§1)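 Cytotoxic wells were those whose IncuCyte confluency was below 70% of agonist controls in both mask sets. The cells were RAW-Dual macrophages at 50,000 cells/well in DMEM on 384-well plates, dosed with 50 nL of library stock by pin tool, stimulated with a PRR agonist 1 h later, and kept at 37 °C, 5% CO2 for 20 hours. IRF and NF-κB reporter activity, as fold change over agonist-alone wells, came from supernatant read by QuantiLuc luminescence and QuantiBlue absorbance, respectively.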
# [2] = test system: RAW-Dual; test: IRF Lucia reporter activity, fold change vs agonist alone; higher = enhanced IRF activity; settings: library stock concentration (final ~1000-fold dilution): 10 mM, agonist: MPLA (TLR4) […]
# In short: as §1
# [3] = test system: RAW-Dual; test: IRF Lucia reporter activity, fold change vs agonist alone; cytotoxicity flag (confluency mask): cytotoxic (confluency <70% of control); higher = enhanced IRF activity
# In short: as §1
# [4] = agonist: 3'3'-cGAMP (STING) 10 ug/mL
# [5] = cytotoxicity flag (confluency mask): not cytotoxic
compound,measurement,setting,value
C=CC(=O)Nc1cccc(Oc2nc(Nc3ccc(N4CCN(C)CC4)cc3OC)ncc2Cl)c1 (library stock concentration (final ~1000-fold dilution): 10 mM),IRF Lucia reporter activity,[1]; [4],0.763
same,IRF Lucia reporter activity,[1]; agonist: LPS (TLR4) 0.1 ug/mL,0.982
C=CC(=O)Nc1cccc(Oc2nc(Nc3ccc(N4CCN(C)CC4)cc3OC)ncc2Cl)c1,IRF Lucia reporter activity,[2]; [5],0.889
O=C(/C=C/c1ccc(O)c(O)c1)OCCc1ccccc1,IRF Lucia reporter activity,[2]; cytotoxicity flag (confluency mask): cytotoxic (confluency <70% of control),0.381 ± 0.45
O=C(/C=C/c1ccc(O)c(O)c1)OCCc1ccccc1 (library stock concentration (final ~1000-fold dilution): 10 mM),IRF Lucia reporter activity,[3]; [4],0.0122 and 0.0159
same,IRF Lucia reporter activity,[3]; agonist: LPS (TLR4) 0.1 ug/mL,0.0688 and 0.174
CCCC(Nc1nc(-c2ccc(NC(=O)NCC)c(OC)c2)ncc1C)c1cccnc1 (configuration not stated) (library stock concentration (final ~1000-fold dilution): 10 mM),IRF Lucia reporter activity,[1]; [4],0.151
same,IRF Lucia reporter activity,[1]; agonist: LPS (TLR4) 0.1 ug/mL,1.32
CCCC(Nc1nc(-c2ccc(NC(=O)NCC)c(OC)c2)ncc1C)c1cccnc1 (configuration not stated),IRF Lucia reporter activity,[2]; [5],1.7
CC(C)=CCC/C(C)=C/Cc1c(O)c(CC=C(C)C)c2c(c1O)C(=O)C1=CC3CC4C(C)(C)OC(C/C=C(/C)C(=O)O)(C3=O)C14O2 (configuration not stated) (library stock concentration (final ~1000-fold dilution): 10 mM),IRF Lucia reporter activity,[3]; [4],0.0207
same,IRF Lucia reporter activity,[3]; agonist: LPS (TLR4) 0.1 ug/mL,0.666
COc1cc2c3cc1Oc1c(OC)c(OC)cc4c1[C@@H](Cc1ccc(O)c(c1)Oc1ccc(cc1)C[C@@H]3N(C)CC2)N(C)CC4 (library stock concentration (final ~1000-fold dilution): 10 mM),IRF Lucia reporter activity,[1]; [4],1.09
same,IRF Lucia reporter activity,[1]; agonist: LPS (TLR4) 0.1 ug/mL,1.09
CCOC(=O)Nc1cc(-c2ccc(C)c(NS(C)(=O)=O)c2)nn2c(C)nnc12,IRF Lucia reporter activity,[2]; [5],0.157
CCOC(=O)Nc1cc(-c2ccc(C)c(NS(C)(=O)=O)c2)nn2c(C)nnc12 (library stock concentration (final ~1000-fold dilution): 10 mM),IRF Lucia reporter activity,[1]; [4],0.315
same,IRF Lucia reporter activity,[1]; agonist: LPS (TLR4) 0.1 ug/mL,0.183
CC1CCN(C(=O)CC#N)CC1N(C)c1ncnc2[nH]ccc12.O=C(O)CC(O)(CC(=O)O)C(=O)O (configuration not stated) (library stock concentration (final ~1000-fold dilution): 10 mM),IRF Lucia reporter activity,[1]; [4],0.221
same,IRF Lucia reporter activity,[1]; agonist: LPS (TLR4) 0.1 ug/mL,0.622
CC1CCN(C(=O)CC#N)CC1N(C)c1ncnc2[nH]ccc12.O=C(O)CC(O)(CC(=O)O)C(=O)O (configuration not stated),IRF Lucia reporter activity,[2]; [5],0.557
CN(C)C/C=C/C(=O)Nc1cc2c(Nc3ccc(F)c(Cl)c3)ncnc2cc1OC1CCOC1.O=C(O)/C=C\C(=O)O.O=C(O)/C=C\C(=O)O (configuration not stated) (library stock concentration (final ~1000-fold dilution): 10 mM),IRF Lucia reporter activity,[3]; [4],0.0121
same,IRF Lucia reporter activity,[3]; agonist: LPS (TLR4) 0.1 ug/mL,0.0196
CN1C(=O)C(C)(C)Oc2c(-c3cn(C)c(=O)c4[nH]ccc34)cc(S(C)(=O)=O)cc21 (library stock concentration (final ~1000-fold dilution): 10 mM),IRF Lucia reporter activity,[3]; [4],0.252
same,IRF Lucia reporter activity,[3]; agonist: LPS (TLR4) 0.1 ug/mL,0.0917
CN1CCC(=C2c3ccccc3CCc3cccnc32)CC1.O=C(O)/C=C\C(=O)O.O=C(O)/C=C\C(=O)O (library stock concentration (final ~1000-fold dilution): 10 mM),IRF Lucia reporter activity,[1]; [4],0.83
same,IRF Lucia reporter activity,[1]; agonist: LPS (TLR4) 0.1 ug/mL,0.866
CN1CCC(=C2c3ccccc3CCc3cccnc32)CC1.O=C(O)/C=C\C(=O)O.O=C(O)/C=C\C(=O)O,IRF Lucia reporter activity,[2]; [5],0.927
O=C(NCCO)c1cccc(-c2cc(Nc3ccc(OC(F)(F)F)cc3)ncn2)c1,IRF Lucia reporter activity,[2]; [5],1.94
O=C(NCCO)c1cccc(-c2cc(Nc3ccc(OC(F)(F)F)cc3)ncn2)c1 (library stock concentration (final ~1000-fold dilution): 10 mM),IRF Lucia reporter activity,[1]; [4],0.724
same,IRF Lucia reporter activity,[1]; agonist: LPS (TLR4) 0.1 ug/mL,2.05
O=C(CS(=O)Cc1ccco1)NC/C=C\COc1cc(CN2CCCCC2)ccn1 (configuration not stated),IRF Lucia reporter activity,[2]; [5],1
O=C(CS(=O)Cc1ccco1)NC/C=C\COc1cc(CN2CCCCC2)ccn1 (configuration not stated) (library stock concentration (final ~1000-fold dilution): 10 mM),IRF Lucia reporter activity,[1]; [4],1.09
same,IRF Lucia reporter activity,[1]; agonist: LPS (TLR4) 0.1 ug/mL,1.09
CC(C)COc1ccc(CNC(=O)N(Cc2ccc(F)cc2)C2CCN(C)CC2)cc1.CC(C)COc1ccc(CNC(=O)N(Cc2ccc(F)cc2)C2CCN(C)CC2)cc1.O=C(O)C(O)C(O)C(=O)O (library stock concentration (final ~1000-fold dilution): 10 mM),IRF Lucia reporter activity,[3]; [4],0.0797
same,IRF Lucia reporter activity,[3]; agonist: LPS (TLR4) 0.1 ug/mL,0.0191
CCn1cc(-c2cccc(C(F)(F)F)c2)c2sc(C(=N)NC3CCS(=O)(=O)CC3)cc2c1=O (library stock concentration (final ~1000-fold dilution): 10 mM),IRF Lucia reporter activity,[3]; [4],0.678
same,IRF Lucia reporter activity,[3]; agonist: LPS (TLR4) 0.1 ug/mL,0.275
Cn1c(=O)cc(N2CCCC(N)C2)n(Cc2ccccc2C#N)c1=O (configuration not stated) (library stock concentration (final ~1000-fold dilution): 10 mM),IRF Lucia reporter activity,[1]; [4],1.02 and 1.03
same,IRF Lucia reporter activity,[1]; agonist: LPS (TLR4) 0.1 ug/mL,1.34 and 1.02
CC(C)c1c(C(=O)Nc2ccccc2)c(-c2ccccc2)c(-c2ccc(F)cc2)n1CCC(O)CC(O)CC(=O)O (configuration not stated) (library stock concentration (final ~1000-fold dilution): 10 mM),IRF Lucia reporter activity,[1]; [4],0.637 and 0.34
same,IRF Lucia reporter activity,[1]; agonist: LPS (TLR4) 0.1 ug/mL,0.968 and 0.706
O=[N+]([O-])c1cccc2cn[nH]c12,IRF Lucia reporter activity,[2]; [5],1.11
O=[N+]([O-])c1cccc2cn[nH]c12 (library stock concentration (final ~1000-fold dilution): 10 mM),IRF Lucia reporter activity,[1]; [4],0.999
same,IRF Lucia reporter activity,[1]; agonist: LPS (TLR4) 0.1 ug/mL,0.953
CNC(=O)c1cc(Oc2ccc(NC(=O)Nc3ccc(Cl)c(C(F)(F)F)c3)c(F)c2)ccn1.O,IRF Lucia reporter activity,[2]; [5],0.708
CNC(=O)c1cc(Oc2ccc(NC(=O)Nc3ccc(Cl)c(C(F)(F)F)c3)c(F)c2)ccn1.O (library stock concentration (final ~1000-fold dilution): 10 mM),IRF Lucia reporter activity,[1]; [4],0.406
same,IRF Lucia reporter activity,[1]; agonist: LPS (TLR4) 0.1 ug/mL,0.335
COc1ccccc1OCC(O)CN1CCN(CC(=O)Nc2c(C)cccc2C)CC1 (configuration not stated),IRF Lucia reporter activity,[2]; [5],0.739
COc1ccccc1OCC(O)CN1CCN(CC(=O)Nc2c(C)cccc2C)CC1 (configuration not stated) (library stock concentration (final ~1000-fold dilution): 10 mM),IRF Lucia reporter activity,[1]; [4],1.08
same,IRF Lucia reporter activity,[1]; agonist: LPS (TLR4) 0.1 ug/mL,0.973
CCNC1=NC2C(OC(CO)C(O)C2O)S1 (configuration not stated),IRF Lucia reporter activity,[2]; [5],1.1
CCNC1=NC2C(OC(CO)C(O)C2O)S1 (configuration not stated) (library stock concentration (final ~1000-fold dilution): 10 mM),IRF Lucia reporter activity,[1]; [4],1.2
same,IRF Lucia reporter activity,[1]; agonist: LPS (TLR4) 0.1 ug/mL,1.15
